PMC7819943, “Rice protein-binding microarrays: a tool to detect cis-acting elements near promoter regions in rice”
This is one part of the list.

The sequences below were run against T1, OsWOX13 (Oryza sativa, UniProt Q5QMM3 1-267) (assay: protein-binding microarray (RPBM); PBS, 2% BSA, 51.3 ng/ul salmon testes DNA, 50 uM zinc acetate, 200 nM TF, 25 C, 1 h; high values mean tight binding). Conditions: protein: recombinant; tags: N-terminal polyhistidine and DsRed monomer fusion (pET32a); label: CyDye5-dUTP incorporated in the synthesized complementary strand; 3' TTTTT single-stranded linker to array surface; dsDNA, one strand shown.
T1 sequence: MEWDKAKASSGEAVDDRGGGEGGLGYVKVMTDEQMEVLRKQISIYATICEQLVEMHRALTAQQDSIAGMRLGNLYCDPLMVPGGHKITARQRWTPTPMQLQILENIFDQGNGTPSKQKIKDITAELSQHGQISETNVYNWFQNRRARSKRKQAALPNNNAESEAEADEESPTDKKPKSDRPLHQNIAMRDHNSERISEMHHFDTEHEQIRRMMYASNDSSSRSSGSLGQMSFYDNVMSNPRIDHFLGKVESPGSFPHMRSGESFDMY
Summary of the method: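 Binding signal is reported as fluorescence intensity per feature (arbitrary units) from an Axon 4000B scanner. Incubation used 200 nM of each Ni–NTA-purified, N-terminally polyhistidine- and DsRed-fused transcription factor from E. coli BL21-CodonPlus on a double-stranded custom Agilent array for 1 h at 25 °C, with 50 µM zinc acetate in the buffer, followed by washing.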

Sequence | binding signal
GAGTTGAATGATGGCTGACTGGCTGTCTGATTTATGGTTTCGGAGTCACCTAGTGCAG | 20800 fluorescence intensity (a.u.)
GTAAATAAATTAATTTACTCCAACAGGTAGTATTTACTATCGGAGTCACCTAGTGCAG | 28100 fluorescence intensity (a.u.)
TTGTTGTGATTAAGACCATCTAATCCATCTGATCAGCGAGCGGAGTCACCTAGTGCAG | 11000 fluorescence intensity (a.u.)
TATCAAAGTTAAACTGTTTTAAATTTAACTAAGTTTAAAGCGGAGTCACCTAGTGCAG | 4610 fluorescence intensity (a.u.)
AAATTTGACAGATGTAATTATGGTACAATCGTAGTGTAATCGGAGTCACCTAGTGCAG | 35400 fluorescence intensity (a.u.)
CTGGGATTGGCTTAAGAGTCTTTGTTTTCCTTTTGCTGCTCGGAGTCACCTAGTGCAG | 30200 fluorescence intensity (a.u.)
TTCAAATTTTCTATCACGATACACATAATATTATATTGATCGGAGTCACCTAGTGCAG | 15300 fluorescence intensity (a.u.)
GAAAATAATTGAATGCAGGATATGCAATTTTGATGCTAGACGGAGTCACCTAGTGCAG | 18800 fluorescence intensity (a.u.)
TTAAATTTAGGCTTTAGTGTATTAGTGCAATCAATAGGCTCGGAGTCACCTAGTGCAG | 4370 fluorescence intensity (a.u.)
TGTAAGTTTGATTGAAATTAGAACGATGTGACGGATAAGTCGGAGTCACCTAGTGCAG | 33700 fluorescence intensity (a.u.)
CAAAAGGCAATTAGTAGACGACTAACTAACTAGTTTCTCCCGGAGTCACCTAGTGCAG | 10500 fluorescence intensity (a.u.)
TCTGGTCAATCACCCTGCCAAACTTTCAGTCAGAGAGACACGGAGTCACCTAGTGCAG | 14600 fluorescence intensity (a.u.)
ATTTCGCTACCAATCAGCTGCTTATCATAATTTTAAACTACGGAGTCACCTAGTGCAG | 11000 fluorescence intensity (a.u.)
GATGATGTGACTGAAAAGTTGTATGTGTATGACATATTGACGGAGTCACCTAGTGCAG | 11500 fluorescence intensity (a.u.)
CGTGTACGGCTCTGATTGGACCGCCCTACCACGAGTCAGACGGAGTCACCTAGTGCAG | 7280 fluorescence intensity (a.u.)
AATAATTGCACAAATATTGCAGGTGTATTTTATCAGCATACGGAGTCACCTAGTGCAG | 31800 fluorescence intensity (a.u.)
TGGAAATTACCATTTGCCTACTCCCATCGTGTCACCAGAACGGAGTCACCTAGTGCAG | 4180 fluorescence intensity (a.u.)
ATAAATTAATGGTAATATATTATTTTACGCACATGCAAATCGGAGTCACCTAGTGCAG | 30600 fluorescence intensity (a.u.)
TGCTTCATTGCATGGATTGATAAAACACATGCTTAATATTCGGAGTCACCTAGTGCAG | 3380 fluorescence intensity (a.u.)
CATTATAATTGAAACCACTGGTAAGAAACTTAGGTTATTGCGGAGTCACCTAGTGCAG | 19900 fluorescence intensity (a.u.)
GAACAAATTTTGAATGTCACGATTTGGGACGGAGGGGAGTCGGAGTCACCTAGTGCAG | 4580 fluorescence intensity (a.u.)

Sequence | binding signal
TGTGATTTAGGGATTTAGAAGCTGCGTGGCTGTTCTGTAACGGAGTCACCTAGTGCAG | 7660 fluorescence intensity (a.u.)
TTTAATGAATGAAACTAACTTACTGTCGTAGATATTACTACGGAGTCACCTAGTGCAG | 3270 fluorescence intensity (a.u.)
GTGAATTAATTGGGCCCACACCTTTTCATGCACCCCTTGCCGGAGTCACCTAGTGCAG | 31300 fluorescence intensity (a.u.)
ATCAGATGAGAAATTGCCGTTGATTAATCCGGAGACGAACCGGAGTCACCTAGTGCAG | 12800 fluorescence intensity (a.u.)
TACTATACGTTAATTGTACACAACGCTCCTAGCAGTTACTCGGAGTCACCTAGTGCAG | 4030 fluorescence intensity (a.u.)
ATTAATTCAACATAATAAAATCACATCATATGAAATATCCCGGAGTCACCTAGTGCAG | 3250 fluorescence intensity (a.u.)
ACCTGAAGAGTATAAATTGACTCCTGGTAGTTTTGCCATTCGGAGTCACCTAGTGCAG | 6210 fluorescence intensity (a.u.)
ATCTTAAATAAATAAATAGTAATTACATGATATTTTGAATCGGAGTCACCTAGTGCAG | 5840 fluorescence intensity (a.u.)
GATGATTTCGTGACGAAGCAGCTACCTCACAATGTGACATCGGAGTCACCTAGTGCAG | 12900 fluorescence intensity (a.u.)
TCTGATAATTTATAAATGTAAGGAGGGTAAAATTAAACCACGGAGTCACCTAGTGCAG | 14700 fluorescence intensity (a.u.)
AACCTAAGCCTAATTAATTAGTCCAGGTTGGTTTTCATGGCGGAGTCACCTAGTGCAG | 11300 fluorescence intensity (a.u.)
GTTGAGTGGTAGTTTGATTGGAAAAGTGCCAAATAACCCTCGGAGTCACCTAGTGCAG | 40100 fluorescence intensity (a.u.)
GTATCTATCTGTCATCAGATTGACGTGGTACACAATTCTTCGGAGTCACCTAGTGCAG | 7170 fluorescence intensity (a.u.)
TTGACGAAATGGGATGTACTGATTAGGGCTGCTAAAATCGCGGAGTCACCTAGTGCAG | 12700 fluorescence intensity (a.u.)
TAGAATTTATTTAATAATTAAAGTAAGTGTTTGAATAGAACGGAGTCACCTAGTGCAG | 3240 fluorescence intensity (a.u.)
CAAAATTTGACAATGCCAAAACTTGGTATGGTTTAAAATGCGGAGTCACCTAGTGCAG | 9370 fluorescence intensity (a.u.)
GGCTTGATTTAATTTGTTTTATGCTAGCGAGAGAATACGGCGGAGTCACCTAGTGCAG | 27200 fluorescence intensity (a.u.)
AAATTTAAGTAATTATTAATTATTTTCCTACCATTTGATTCGGAGTCACCTAGTGCAG | 25800 fluorescence intensity (a.u.)
ATTAATTAAGGCATAAGTACACCACATTCCACGTCACTACCGGAGTCACCTAGTGCAG | 8290 fluorescence intensity (a.u.)
CCAGAAGCTTGATTTGCAGCTGAAATGTATCCAAATTTGGCGGAGTCACCTAGTGCAG | 8230 fluorescence intensity (a.u.)
GAGAATTTGCATAGACAGATCTTCCTCCTTTCGTGCAAGACGGAGTCACCTAGTGCAG | 4290 fluorescence intensity (a.u.)
